This is an account of results in PMC6114900, “Molecular basis for CesT recognition of type III secretion effectors in enteropathogenic Escherichia coli” (PLoS Pathogens, 2018).

This series deals with the molecule itself. The series can be described thus: SEC. (In general: Size exclusion chromatography separates by hydrodynamic size, large species first.)

B1: CesT^138 (purified alone) (domain or fragment)
chain: SSRSELLLDRFAEKIGVGSISFNENRLCSFAIDEIYYISLSDANDEYMMIYGVCGKFPTDNPNFALEILNANLWFAENGGPYLCYESGAQSLLLALRFPLDDATPEKLENEIEVVVKSMENLYLVLHNQGITLENEH
notes: source: E. coli BL21-CodonPlus (DE3), purified (Ni-NTA, SEC)
For B1, the “stoichiometry N” value was 2.

As usually defined, the stoichiometry N is the number of molecules, sites or subunits per partner or assembly.
